Experimental data published in article PMC4336329 (PLoS ONE, 2015).
About 2,200 (0.71%) of roughly 310,000 compounds showed an effect of 50% or more. The effect is printed as a negative number. Some of the results follow.

Each compound was assayed against human ether-à-go-go-related gene (hERG) potassium channel (human, UniProt Q12809) (assay: primary screen, population patch clamp on CHO cells stably expressing hERG).
Chain of human ether-à-go-go-related gene (hERG) potassium channel (Q12809 whole entry, looked up): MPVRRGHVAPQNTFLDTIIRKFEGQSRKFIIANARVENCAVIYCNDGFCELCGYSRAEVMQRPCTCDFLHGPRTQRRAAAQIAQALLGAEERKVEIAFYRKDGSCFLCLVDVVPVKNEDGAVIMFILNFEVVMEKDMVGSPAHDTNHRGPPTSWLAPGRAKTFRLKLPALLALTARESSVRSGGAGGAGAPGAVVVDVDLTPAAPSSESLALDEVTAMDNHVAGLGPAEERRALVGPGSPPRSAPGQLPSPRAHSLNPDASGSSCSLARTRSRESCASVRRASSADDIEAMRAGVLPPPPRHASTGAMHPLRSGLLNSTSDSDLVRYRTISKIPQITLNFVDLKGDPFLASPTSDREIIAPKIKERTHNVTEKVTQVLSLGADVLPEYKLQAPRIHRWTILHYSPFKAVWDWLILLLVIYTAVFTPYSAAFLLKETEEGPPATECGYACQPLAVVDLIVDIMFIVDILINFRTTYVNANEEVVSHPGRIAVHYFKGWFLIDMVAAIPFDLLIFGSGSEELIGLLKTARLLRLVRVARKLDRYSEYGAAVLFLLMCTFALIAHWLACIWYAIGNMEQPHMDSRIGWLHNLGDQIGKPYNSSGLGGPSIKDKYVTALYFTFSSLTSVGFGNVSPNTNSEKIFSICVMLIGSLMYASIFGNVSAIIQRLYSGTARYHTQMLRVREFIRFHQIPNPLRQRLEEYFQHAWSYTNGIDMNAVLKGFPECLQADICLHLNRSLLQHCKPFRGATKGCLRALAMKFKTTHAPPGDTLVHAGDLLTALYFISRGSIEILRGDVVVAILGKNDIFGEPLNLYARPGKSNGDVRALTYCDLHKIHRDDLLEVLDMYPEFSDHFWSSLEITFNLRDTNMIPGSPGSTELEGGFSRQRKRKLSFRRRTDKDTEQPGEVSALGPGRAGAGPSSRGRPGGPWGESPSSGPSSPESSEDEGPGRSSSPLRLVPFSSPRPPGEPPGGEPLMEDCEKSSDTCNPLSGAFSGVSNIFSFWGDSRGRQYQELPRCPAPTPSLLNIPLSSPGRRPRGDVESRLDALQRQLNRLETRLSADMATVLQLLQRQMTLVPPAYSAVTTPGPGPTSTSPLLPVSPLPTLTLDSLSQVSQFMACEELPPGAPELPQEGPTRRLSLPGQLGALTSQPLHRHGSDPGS

Going from `COc1ccc(/C=N/NC(=O)C(C)n2cnc3ccccc3c2=O)cc1` (stereo not shown) to `COc1ccc(NC(=O)c2nc[nH]c2C(=O)NCc2ccccc2)cc1`, the “hERG current change (%, negative = inhibition) at 1uM” value rises from -35.5% to 12%.

First: CCCc1nnc(NC(=O)c2cc(OC)cc(OC)c2)s1
Second: Cc1nnc(NC(=O)c2cccc(S(=O)(=O)N3CCN(C)CC3)c2)s1
The “hERG current change (%, negative = inhibition) at 1uM” value of the first is lower: 3.36% for the first, 9.74% for the second.

Going from `O=C(Nc1ccc(F)cc1)c1ccc(-n2ccnc2)nc1` to `Cc1cccc(Nc2c(-c3ccc(O)cc3)nc3ncccn23)c1`, the “hERG current change (%, negative = inhibition) at 1uM” value rises from -3.28% to 13.5%.

Compared with `CC(=O)N1CCN(Cc2ccc(Br)s2)CC1`, `CC(=O)N1CCN(CCN=CC2=C(O)CC(c3ccco3)CC2=O)CC1` (stereo not shown) is lower in “hERG current change (%, negative = inhibition) at 1uM” value: 8.94% for the first, 2.39% for the second.

Compared with `Cc1ccc(NC(=O)CSCC(=O)NCCc2ccccc2)cc1`, `Cc1ccc(NC(=O)COC(=O)CNC(=O)c2ccco2)cc1` is higher in “hERG current change (%, negative = inhibition) at 1uM” value: 4.35% for the first, 6.59% for the second.

First: Cc1[nH]c(=O)[nH]c(=O)c1/C=N\NC(=O)CCc1ccc(OC(C)C)cc1
Second: CC(C)Oc1ccc(C(=O)NCCCNC(=O)c2cccnc2)cc1
The “hERG current change (%, negative = inhibition) at 1uM” value of the first is higher: 20.3% for the first, 10.5% for the second.

Compared with `C=CC[N+](C)(C)CCN1C(=O)C2C(c3ccccc3)C=CC(c3ccccc3)C2C1=O.[Br-]` (stereo not shown), `CCC(C(=O)OCC(=O)Nc1c(C)n(C)n(-c2ccccc2)c1=O)c1ccccc1` (stereo not shown) is lower in “hERG current change (%, negative = inhibition) at 1uM” value: 10.9% for the first, 5.41% for the second.

Going from `CN(Cc1ccon1)Cc1cn(C)nc1-c1ccc2c(c1)OCCO2` to `Cc1cc[n+](CC(=O)c2ccc3c(c2)OCCO3)cc1.[Br-]`, the “hERG current change (%, negative = inhibition) at 1uM” value falls from 17.3% to -5.5%.

First: Cc1nc2ccccn2c1C(=O)N/N=C/c1ccc([N+](=O)[O-])o1
Second: Cc1ccc(OCC(=O)c2ccc(Cl)s2)c([N+](=O)[O-])n1
The “hERG current change (%, negative = inhibition) at 1uM” value of the first is lower: -21% for the first, 5.82% for the second.

Compared with `CCOC(=O)c1c(NC(=O)c2cc(CC(C)C)on2)sc(C(C)=O)c1C`, `CCc1c(C)sc2nc(C(C)C)nc(SCC(=O)N3CCc4ccccc4C3)c12` is lower in “hERG current change (%, negative = inhibition) at 1uM” value: 12.5% for the first, 4.59% for the second.

First: CCN(CC)c1ccc(NC(=O)CN(C)Cc2cccs2)cc1
Second: CCCC1=NN2C(=N)/C(=C\c3ccc(OCCOc4ccc(NC(C)=O)cc4)c(OC)c3)C(=O)N=C2S1
The “hERG current change (%, negative = inhibition) at 1uM” value of the first is higher: 16.9% for the first, 12.4% for the second.

Compared with `COCC(=O)N(C)c1nnc(-c2ccccn2)s1`, `CC(=O)NNc1nc2ccccc2s1` is lower in “hERG current change (%, negative = inhibition) at 1uM” value: 8.82% for the first, 5.36% for the second.

Going from `C(=N\c1nccs1)/Nc1nccs1` to `COCc1nnc(NS(=O)(=O)c2ccc(F)cc2)s1`, the “hERG current change (%, negative = inhibition) at 1uM” value falls from 13.8% to 6.71%.

First: COc1ccc(Nc2ncnc3c2cnn3Cc2ccc(C)cc2)cc1
Second: COc1ccc(N2C(=O)CC(Nc3cccc([N+](=O)[O-])c3)C2=O)cc1 (stereo not shown)
The “hERG current change (%, negative = inhibition) at 1uM” value of the first is higher: 7.63% for the first, 4.74% for the second.

Going from `Cc1ccnc(NC(=O)C2COc3ccccc3O2)c1` (stereo not shown) to `Cc1ccc(CSc2nnc(NC(=O)C3=COCCO3)s2)cc1`, the “hERG current change (%, negative = inhibition) at 1uM” value rises from 7.09% to 8.12%.

First: Cc1cccc(NC(=O)Cn2nc(C(F)(F)F)cc2C2CC2)c1
Second: Cc1[nH]c2ccccc2c1C(O)CN1CCN(c2cccc(C(F)(F)F)c2)CC1 (stereo not shown)
The “hERG current change (%, negative = inhibition) at 1uM” value of the first is lower: -10.1% for the first, 3.76% for the second.

Compared with `CCN1C(=O)CC(NC2CCN(C(=O)c3ccc(F)cc3)CC2)C1=O` (stereo not shown), `CN(C(=O)c1ccc(=O)[nH]c1)C1(C(=O)NC2CCCCC2)CCCCC1` is higher in “hERG current change (%, negative = inhibition) at 1uM” value: 14.8% for the first, 15.2% for the second.

Compared with `CCC(=O)Nc1nnc(SCC(=O)N2c3ccccc3CC2C)s1` (stereo not shown), `CCOc1ccc(C(C)NC(=O)c2ccccc2F)cc1` (stereo not shown) is higher in “hERG current change (%, negative = inhibition) at 1uM” value: 9.01% for the first, 11.5% for the second.

First: Cc1ccc2c(c1)N(C)/C(=C/c1cccc[n+]1CCO)S2.[I-]
Second: CC(C)CN(CC(C)C)C1=N/C(=C\c2ccco2)C(=O)N1c1ccccc1
The “hERG current change (%, negative = inhibition) at 1uM” value of the first is higher: 15.9% for the first, 8.79% for the second.

Compared with `COc1cc(C)c(C)cc1S(=O)(=O)N1CCN(Cc2ccc3c(c2)OCO3)CC1`, `COc1cc(C=O)ccc1OCC(=O)N1CCCC1` is lower in “hERG current change (%, negative = inhibition) at 1uM” value: 10.9% for the first, 7.18% for the second.

First: COCC(=O)N(C)C1(c2nnnn2CCOC(=O)Nc2ccc(Cl)cc2)CCCCC1
Second: Brc1ccc(NCc2nnc3n2CCCCC3)cc1
The “hERG current change (%, negative = inhibition) at 1uM” value of the first is higher: 13.3% for the first, 1.22% for the second.

First: CS(=O)(=O)c1ccc(Cl)c(S(=O)(=O)NCc2ccccc2)c1
Second: Cc1ccc2[nH]c(O)c(N=NC(=O)CCc3ccccc3)c2c1Br
The “hERG current change (%, negative = inhibition) at 1uM” value of the first is higher: 16.7% for the first, 8.03% for the second.

First: COc1ccc(NC(=O)CCCNC(=O)Cn2cnc3sc4c(c3c2=O)CCCC4)cc1OC
Second: CCOc1ccc2nc(N=NC3=C(O)CC(C)(C)CC3=O)sc2c1
The “hERG current change (%, negative = inhibition) at 1uM” value of the first is higher: 19.9% for the first, 18.3% for the second.
